This experiment addresses Rdj2 (also called DnaJA2), transfected (UniProt O35824). The experiment in a line: SDS-resistant dimer on SDS-PAGE with Western blot; lysates of transiently transfected CAD cells, control or treated 24 h with quercetin (up to 200 µM), EGCG or other agents; 30-40 µg protein in SDS sample buffer at 37°C or 80°C; dimer at ∼72 kDa. (A western blot detects proteins with antibodies after separation by electrophoresis.)

Sequences of proteins named here, by UniProt entry; tags and fusion partners are left off.
UniProt O35824: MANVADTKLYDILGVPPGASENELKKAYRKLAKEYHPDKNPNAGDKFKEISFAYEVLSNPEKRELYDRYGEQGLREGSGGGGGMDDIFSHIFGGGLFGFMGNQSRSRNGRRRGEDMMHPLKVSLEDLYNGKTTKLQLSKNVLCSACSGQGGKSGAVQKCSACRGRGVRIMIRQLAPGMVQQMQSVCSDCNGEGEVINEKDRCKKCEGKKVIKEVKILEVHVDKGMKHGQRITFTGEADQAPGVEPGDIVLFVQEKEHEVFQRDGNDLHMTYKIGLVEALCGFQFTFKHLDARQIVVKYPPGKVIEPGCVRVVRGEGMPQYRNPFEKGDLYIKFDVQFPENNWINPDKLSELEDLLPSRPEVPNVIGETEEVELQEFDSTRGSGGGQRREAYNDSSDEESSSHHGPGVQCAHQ

These are yes or no findings as the source states them, for the method shown.

Take “Rdj2 (also called DnaJA2), transfected (from UniProt O35824 1-412)”: the binding entry is listed as “no binding”.

For the origin of these results see publication PMC2883571, “Quercetin Targets Cysteine String Protein (CSPα) and Impairs Synaptic Transmission” (PLoS ONE, 2010).
